# Results reported in PMC4336329 (PLoS ONE, 2015).
# In all, about 310,000 compounds went through this assay and about 2,200 (0.71%) showed an effect of 50% or more. The effect is printed as a negative number. The list shows a part of the results. Where a SMILES comes first, the peptide text is derived from it. [ ]: non-standard residue; d: D form. The star is where a group is joined. ξ: configuration not given here. Tos = Cc1ccc(S(=O)(=O)*)cc1; ξP = O=C(O)C1CCCN1
# Target: human ether-à-go-go-related gene (hERG) potassium channel (human, UniProt Q12809)
# Assay: primary screen, population patch clamp on CHO cells stably expressing hERG
# Chain of human ether-à-go-go-related gene (hERG) potassium channel (Q12809 whole entry, looked up): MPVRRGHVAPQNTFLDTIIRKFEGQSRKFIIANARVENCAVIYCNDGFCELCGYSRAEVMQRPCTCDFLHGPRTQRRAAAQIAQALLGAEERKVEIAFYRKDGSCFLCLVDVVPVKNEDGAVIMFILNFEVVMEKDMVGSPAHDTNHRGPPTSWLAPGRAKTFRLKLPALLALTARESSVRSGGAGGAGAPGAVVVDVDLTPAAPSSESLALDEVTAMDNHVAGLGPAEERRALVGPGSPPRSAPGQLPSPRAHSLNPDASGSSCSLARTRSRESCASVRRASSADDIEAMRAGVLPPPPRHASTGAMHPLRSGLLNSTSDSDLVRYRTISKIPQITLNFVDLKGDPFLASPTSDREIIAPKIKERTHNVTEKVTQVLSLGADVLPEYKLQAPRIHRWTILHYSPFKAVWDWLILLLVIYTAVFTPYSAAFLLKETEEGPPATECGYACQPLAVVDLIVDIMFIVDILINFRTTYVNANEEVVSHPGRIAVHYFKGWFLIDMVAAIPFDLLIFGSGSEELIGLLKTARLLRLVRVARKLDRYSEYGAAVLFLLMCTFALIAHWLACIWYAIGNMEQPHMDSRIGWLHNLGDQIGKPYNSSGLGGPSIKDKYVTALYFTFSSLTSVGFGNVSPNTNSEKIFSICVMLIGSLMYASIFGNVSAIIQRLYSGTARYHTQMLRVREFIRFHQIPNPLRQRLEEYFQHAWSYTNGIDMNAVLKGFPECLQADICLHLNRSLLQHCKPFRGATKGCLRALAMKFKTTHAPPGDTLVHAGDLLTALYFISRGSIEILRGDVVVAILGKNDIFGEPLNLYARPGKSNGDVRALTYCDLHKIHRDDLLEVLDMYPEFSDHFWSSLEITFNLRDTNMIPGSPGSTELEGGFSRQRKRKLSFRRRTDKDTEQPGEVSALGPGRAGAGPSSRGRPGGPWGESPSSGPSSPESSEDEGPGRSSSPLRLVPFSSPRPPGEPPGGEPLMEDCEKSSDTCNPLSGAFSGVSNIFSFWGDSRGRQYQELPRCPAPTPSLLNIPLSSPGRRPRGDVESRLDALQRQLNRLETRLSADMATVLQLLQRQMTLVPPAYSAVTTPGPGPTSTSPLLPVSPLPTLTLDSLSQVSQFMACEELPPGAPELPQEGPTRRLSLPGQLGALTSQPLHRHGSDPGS
row,SMILES,"hERG current change (%, negative = inhibition) at 1uM"
1,Cc1ccc(CSc2nc3ccccc3cc2C=O)cc1,6.15%
2,C[C@@]12C(=O)Nc3ccc(Br)cc3C(=O)N1[C@H]1c3cc(Br)ccc3OC[C@@H]1[C@@H]2c1ccccc1,13.7%
3,O=C(Nc1cccn(Cc2c(Cl)cccc2Cl)c1=O)c1ccccc1Cl,7.58%
4,O=c1[nH]c2ccc(NC(=S)Nc3ccc(F)cc3)cc2[nH]1,15.5%
5,COc1cccc(NC(=O)Nc2nc(SC(C)(C)C)ns2)c1,12.3%
6,CCOC(=O)C1(CC2CCCCO2)CCN(Cc2nccn2-c2ccc(OC)cc2)CC1 (centres unmarked),6.86%
7,Cc1ccc(S(=O)(=O)Nc2cc3c4c(c2)C(C)C(=O)N4CCC3)cc1 (centres unmarked),8.98%
8,O=C(CCCn1ncn2c(cc3occc32)c1=O)N1CCc2ccccc2C1,-19.2%
9,COc1ccc(NC(=O)C(=O)N/N=C/c2cccnc2)cc1,-2.94%
10,CCOC(=O)N1CCN(S(=O)(=O)c2ccc(C(=O)N(CCN(C)C)c3nc4ccc(Cl)cc4s3)cc2)CC1.Cl,9.16%
11,COc1ccc(OC)c(-c2nnc(SCC(=O)N3CCCc4ccccc43)o2)c1,-2.73%
12,O=C(NCCCN1CCCC1)c1ccc2c(c1)N(Cc1ccc(F)cc1)C(=O)c1ccccc1S2=O (centres unmarked),8.48%
13,O=c1c2c(nc3n1CCCCC3)-c1ccccc1CC21CCCCC1,11.7%
14,CCc1nn(CCCC(=O)NCc2cc(Br)ccc2OC)c(=O)c2cc3occc3n12,4.24%
15,O=C(CCNS(=O)(=O)c1ccccc1)N1CCN(C(c2ccccc2)c2ccccc2)CC1,-5.28%
16,COc1cc(C(=O)NCCC2=CCCCC2)ccc1OCc1c(C)noc1C,14.9%
17,COc1ccccc1N1CCN(C(=O)CCCn2c(=O)[nH]c3ccsc3c2=O)CC1,11.5%
18,CCCn1nnnc1NC(=O)c1cc(Cl)ccc1Cl,9.33%
19,N/C(=N\OC(=O)CC1CCCCC1)c1ccccc1,1.81%
20,Cc1cc(C)n(-c2nnc(C)n2/N=C/c2ccc(O)cc2)n1,14.8%
21,Cc1c(C(=O)NCc2ccco2)cccc1[N+](=O)[O-],9.75%
22,Cc1cccn2c(=O)c3cc(S(=O)(=O)c4ccccc4)c(=N)n(CC4CCCO4)c3nc12 (centres unmarked),7.88%

row,SMILES,"hERG current change (%, negative = inhibition) at 1uM"
1,O=S(=O)(c1ccc(Cl)cc1)N1CCCN(c2nc3ccc(Cl)cc3s2)CC1,9.45%
2,CC1(CC(=O)Nc2ccccc2)NC(=S)N(c2ccccc2)N1 (centres unmarked),20.5%
3,C=CCn1nc2n(c1=O)-c1ccccc1SC2,5.29%
4,CCc1nc(SCC(=O)NCc2ccccc2)c2c(=O)n(C)c(=O)n(C)c2n1,-3.05%
5,Cc1ccc(SCC(=O)O/N=C(\N)c2ccc([N+](=O)[O-])cc2)cc1,-0.381%
6,Brc1ccc(/C=N/Nc2nncc(-c3ccccc3)n2)o1,4.76%
7,Cc1cc(NC(=O)c2ccccc2)nc2c1c(=O)oc1ccccc12,17.1%
8,COc1ccc2[nH]cc(CCNC(=O)Cc3ccc(Br)cc3)c2c1,9.07%
9,C/C(=N\NC(=O)CNC(=O)c1ccc(F)cc1)c1ccco1,12.4%
10,Fc1ccc(-c2nc3ccccc3[nH]2)cc1,13.9%
11,COc1ccc(OCCCON2C(=O)c3ccccc3C2=O)cc1,6.98%
12,Cc1ccc(-c2onc3ccc(Cl)cc23)cc1,5.22%
13,O=C1NC(c2ccc(Cl)cc2)Oc2ccccc21 (centres unmarked),16.1%
14,COc1ccc(C(=O)Nc2ccc3oc(-c4cccnc4)nc3c2)cc1OC,13.5%
15,CCc1cc(C(=O)N2CCN(S(=O)(=O)c3cc(C)ccc3C)CC2)sc1C,13.5%
16,CCOC(=O)c1ccc(NC(=O)CCNc2c(N3CCCC3)c(=O)c2=O)cc1,13.1%
17,Cc1ccc(S(=O)(=O)NCC(=O)N2CCCC2C(=O)O)cc1 (stereo not drawn) (Tos-Gly-[ξP]-OH),8.34%
18,CCN(CC)C(=O)N1CCN(S(=O)(=O)c2c(C)cc(C)cc2C)CC1,11.4%
19,Clc1ccc(-n2nnc(-c3cccnc3Cl)n2)cn1,2%
20,COc1cc(/C=N/NC(=O)COc2ccc([N+](=O)[O-])cc2)ccc1OCC(=O)N1CCOCC1,21.6%
21,Cc1ccc(CNc2nc(C)c(C(=O)N(C)C)s2)cc1,11.9%
22,Cc1ccc(C)c(C2NC(=O)c3ccccc3N2)c1 (centres unmarked),14.8%

row,SMILES,"hERG current change (%, negative = inhibition) at 1uM"
1,COc1ccc(NC(=O)CN(C)C(=O)c2ccc(-c3cccc(C(F)(F)F)c3)o2)cc1,11.9%
2,CSCCC1NC2(C(=O)Nc3c(Cl)cccc32)[C@@H]2C(=O)N(C3CCCC3)C(=O)[C@H]12 (some centres unmarked),2.45%
3,CCOC(=O)C1=C(C)NC2=C(C(=O)CCC2)C1c1ccc(O)c(OCC)c1 (centres unmarked),5.99%
4,Cc1ccc(OCC(=O)N/N=C/c2cn(Cc3ccccc3)c3ccccc23)cc1,14.7%
5,COc1ccc(CNC(=O)C2CC(c3cc(C(F)(F)F)cc(C(F)(F)F)c3)=NO2)cc1 (centres unmarked),11.6%
6,CN1CCN(Cc2cc(C(C)(C)C)c(O)c(C(C)(C)C)c2)CC1,5.2%
7,C=CCN(C(=O)c1cc(C)cc(C)c1)C1(C(=O)Nc2ccccc2)CCN(C(C)C)CC1,4.58%
8,COc1cc(S(=O)(=O)N2CCCCC2)ccc1NC(=O)/C=C/c1ccccc1,3.25%
9,O=C(CNS(=O)(=O)c1ccccc1)N1CCN(C(=O)c2ccco2)CC1,-0.9%
10,CSc1nnc(-c2ccccc2)c(-c2ccccc2)n1,12.5%
11,COc1cc(NS(=O)(=O)c2ccc(NC(=O)CN3C(=O)c4ccccc4C3=O)cc2)nc(OC)n1,15.5%
12,CSc1nc(C)[nH]c(=O)c1C#N,15.7%
13,CCOC(=O)C(C(=O)NCc1cccc(OC)c1)c1ncc(C(F)(F)F)cc1Cl (centres unmarked),9.84%
14,CC(=O)c1ccc(S(=O)(=O)N2CCN(c3ccccc3F)CC2)cc1,8.26%
15,COc1ccc(CN2C(=O)c3cccnc3C2O)cc1 (centres unmarked),11.2%
16,O=C1CC(=O)Nc2cc(S(=O)(=O)N3CCOc4ccc(Cl)cc43)ccc2N1,3.45%
17,C=CC1=C(C(=O)O)N2C(=O)[C@@H](NC(=O)/C(=N\O)c3csc(N)n3)[C@H]2SC1,2.79%
18,Cc1ccc(C)c(C(=O)CCC(=O)N2CCN(c3cccc(C(F)(F)F)c3)CC2)c1,11.4%
19,COc1ccccc1/C=C/C(=O)c1ccccc1,7.55%
20,Cc1cc(C)n(/N=C/c2cccs2)c(=O)c1C#N,5.14%
21,Cc1ccc(F)cc1NC(=O)c1ccc2c(c1)OCO2,13.3%
22,CCC(C)c1ccc(OCC(=O)Nc2ccc3[nH]c(=O)[nH]c3c2)cc1 (centres unmarked),3.56%

row,SMILES,"hERG current change (%, negative = inhibition) at 1uM"
1,CCN(CC)C(=O)C1CCCN(C(=S)Nc2cccc3ccccc23)C1 (centres unmarked),11.7%
2,Cc1cc(-c2ccc(C)c(S(=O)(=O)N3CCN(c4ccccn4)CC3)c2)on1,6.4%
3,COc1ccccc1NC(=O)C(CC(C)C)NC(=O)C1CCCCC1 (centres unmarked),4.24%
4,O=C(O)COc1ccccc1-c1nc(-c2ccccc2)c(-c2ccccc2)[nH]1,12.4%
5,COc1ccc(C(=O)NN2C(=O)C3C4C=CC(O4)C3C2=O)cc1 (centres unmarked),6.24%
6,CC1CCN(CC(O)COCCOc2ccc(Br)cc2)CC1.Cl (centres unmarked),-23%
7,COc1ccccc1N(Cc1cc(=O)[nH]c2ccccc12)C(=O)c1ccccc1,17.8%
8,CCOC(=O)C1C(=O)NC(N2CCN(CC)CC2)=NC1c1ccccc1 (centres unmarked),11%
9,Cc1ccc(S(=O)(=O)N2[C@@H](c3cccc(Cl)c3)C(C(=O)O)=CC[C@H]2c2cccc(C)c2)cc1,7.45%
10,Cc1ccc(C(=O)Nc2cccc(C(F)(F)F)c2)cc1NC(=O)c1nccnc1N,12.3%
11,Cc1cc(C)n(CC(=O)Nc2cccc(C(F)(F)F)c2)n1,8.66%
12,COC(=O)c1ccc(N2CCOCC2)c(NC(=O)c2cccnc2)c1,5.37%
13,COCCNC(=O)C(c1ccc(C)cc1)N(C(=O)CCC(=O)Nc1ccccn1)C1CCCCC1 (centres unmarked),17.7%
14,CCn1nc(CC(=O)O)c2ccccc2c1=O,27.7%
15,CCc1csc(CNC(=O)C2CCC(=O)N(Cc3cccc(F)c3)C2)n1 (centres unmarked),11.9%
16,CC(C)(C)N1C(=O)c2ccc(C(=O)Nc3cc(C(=O)O)cc(C(=O)O)c3)cc2C1=O,15.3%
17,COc1cc(OC)c(C2N(c3ccc(Cl)cc3)C(=O)C3CCCN32)cc1OC (centres unmarked),7.88%
18,CN1CCN(C(=O)C2=C[C@H](c3ccccc3)C[C@H](OCc3ccc(CO)cc3)O2)CC1,-9.47%
19,C[n+]1cccc(/C=N/Nc2nc(Cl)c(C#N)c(Cl)c2Cl)c1.[Cl-],10.3%
20,COc1ccc(/C=C(/NC(=O)c2ccccc2)C(=O)NCc2ccco2)cc1,20.7%
